This is an account of results in PMC4336329 (PLoS ONE, 2015).

SMILES strings stand for the structures. In all, about 310,000 compounds went through this assay and about 14,000 (4.5%) showed an effect of 50% or more. The effect is printed as a negative number. The list shows a part of the results.
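Also: peak tail current of the secondary pulse compared with the same well before compound.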

The target in the assay is human ether-à-go-go-related gene (hERG) potassium channel (human, UniProt Q12809). In words: primary screen, population patch clamp on CHO cells stably expressing hERG.
Sequence of human ether-à-go-go-related gene (hERG) potassium channel (Q12809 whole entry, looked up): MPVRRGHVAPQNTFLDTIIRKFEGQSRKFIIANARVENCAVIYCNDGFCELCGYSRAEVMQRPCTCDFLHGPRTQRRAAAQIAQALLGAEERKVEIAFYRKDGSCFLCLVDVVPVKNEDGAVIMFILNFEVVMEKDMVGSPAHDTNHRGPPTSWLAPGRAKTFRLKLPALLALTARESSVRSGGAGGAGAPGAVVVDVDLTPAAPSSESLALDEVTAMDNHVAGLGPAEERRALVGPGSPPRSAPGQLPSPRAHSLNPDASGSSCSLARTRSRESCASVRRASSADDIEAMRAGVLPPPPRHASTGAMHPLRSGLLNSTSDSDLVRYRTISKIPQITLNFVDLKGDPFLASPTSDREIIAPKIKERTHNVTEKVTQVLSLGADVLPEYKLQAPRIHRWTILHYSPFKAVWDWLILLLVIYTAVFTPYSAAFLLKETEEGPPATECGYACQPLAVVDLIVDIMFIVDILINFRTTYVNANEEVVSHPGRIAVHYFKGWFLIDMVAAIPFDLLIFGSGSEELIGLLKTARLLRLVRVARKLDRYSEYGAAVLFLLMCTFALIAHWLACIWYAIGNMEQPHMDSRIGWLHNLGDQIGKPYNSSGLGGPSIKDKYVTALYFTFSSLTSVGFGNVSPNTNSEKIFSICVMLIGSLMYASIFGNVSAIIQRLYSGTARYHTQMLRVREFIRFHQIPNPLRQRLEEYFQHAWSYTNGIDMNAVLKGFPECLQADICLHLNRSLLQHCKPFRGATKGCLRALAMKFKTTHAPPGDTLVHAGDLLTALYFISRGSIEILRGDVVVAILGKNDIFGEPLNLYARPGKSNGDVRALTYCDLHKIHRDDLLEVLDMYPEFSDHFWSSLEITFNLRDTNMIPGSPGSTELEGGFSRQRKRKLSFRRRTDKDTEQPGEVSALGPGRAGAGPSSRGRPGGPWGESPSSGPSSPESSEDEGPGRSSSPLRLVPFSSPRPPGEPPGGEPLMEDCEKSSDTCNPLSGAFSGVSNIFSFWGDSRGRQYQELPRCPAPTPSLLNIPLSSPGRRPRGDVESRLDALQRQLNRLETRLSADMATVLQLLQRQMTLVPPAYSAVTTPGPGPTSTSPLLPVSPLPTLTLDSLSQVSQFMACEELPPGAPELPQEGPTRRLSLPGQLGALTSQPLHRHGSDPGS
Regarding `COc1ccc(/C=C2\SC(=O)N(CCNC(=O)C3CC(=O)N(c4ccccc4)C3)C2=O)cc1` (centres unmarked), the “hERG current change (%, negative = inhibition) at 10uM” value is -21.9%.
Consider `Cl.O=C(COc1ccc(Cl)cc1)N(c1ccccc1Cl)C1CN2CCC1CC2` (centres unmarked), for which the “hERG current change (%, negative = inhibition) at 10uM” value is -50.5%.
The value for `CC(=O)Nc1ccc(-c2cc(N)n(-c3ccccc3)n2)cc1` was 20.2%.
In the case of `CCCCCC(=O)Nc1cc(S(=O)(=O)N2CCOCC2)ccc1N1CCCC1`, the “hERG current change (%, negative = inhibition) at 10uM” value is recorded as -26.4%.
For `O=S(=O)(Cc1cc(Oc2ccccc2)nc(-c2ccccc2)n1)c1ccccc1`, the “hERG current change (%, negative = inhibition) at 10uM” value worked out at 9.77%.
The value for `COc1ccccc1CNC(=O)COC(=O)c1cccc(S(=O)(=O)N2CCCC2)c1` was 31.6%; that for `CCCCN(C)CCNC(=S)Nc1ccc2nc(N3CCN(CC)CC3)cc(C)c2c1` was 2.83%.
Consider `O=C(CSc1nc2ccccc2n1S(=O)(=O)c1cccc([N+](=O)[O-])c1)NCc1cccs1`, for which the “hERG current change (%, negative = inhibition) at 10uM” value was -0.33%.
To `CCOC(=O)c1c(C)nc2c(C#N)cnn2c1C` belongs -38.2%; to `CCn1nc(C)c(CN2CCc3c([nH]c4ccccc34)C2c2ccc(F)c(OC)c2)c1C` (centres unmarked), -48.2%.
The value for `CN(C)C1=NC[C@H](Cc2ccccc2)N1CCc1cccc(F)c1` was -64.1%.
The value for `CNc1ccc(/C=C/C(=O)c2cccc3ccccc23)cc1[N+](=O)[O-]` was 3.93%.
As for `Cc1cc([N+](=O)[O-])ccc1NC(=O)CN1CCN(Cc2ccccc2)CC1`, the “hERG current change (%, negative = inhibition) at 10uM” value is reported as -73.9%.
To `O=[N+]([O-])c1ccc(COc2cccnc2)cc1` belongs -6.51%; to `Cc1nn(Cc2ccccc2)c(C)c1NC(=O)CCCn1nc([N+](=O)[O-])c(Cl)c1C`, -43%; to `CCCCn1c(=O)[nH]c(=O)c2c1nc(-c1ccc(-c3ccc(F)cc3)o1)n2C`, -55%.
To `CCN(CC)S(=O)(=O)c1ccc(C2CNC(=O)C2)cc1` (centres unmarked) belongs -34.3%.
The value for `COc1cc(C(=O)OCC(=O)NC2CCS(=O)(=O)C2)c([N+](=O)[O-])cc1OC` (centres unmarked) was 11.9%; that for `Cc1noc2ncnc(N3CCN(c4cccc(Cl)c4)CC3)c12` was -52%; that for `Cc1ccc(NC(=O)c2cc3c(s2)CCCC3)cc1` was -12.8%.
`Cc1ccc2oc(=O)n(CC(=O)OCCC(C)C)c2c1`: the “hERG current change (%, negative = inhibition) at 10uM” value is reported as 6.37%.
The value for `Cc1cc(OCC(=O)N(C(C)C)C(C)C)cc(C)c1Br` was -6.19%; that for `Cc1cccc(N2CCN(S(=O)(=O)c3cccc4nonc34)CC2C)c1` (centres unmarked) was 31.3%; that for `Cc1cccc(Oc2ccccc2N)c1` was -5.81%.
The value for `COc1cc(S(=O)(=O)NCc2ccncc2)c(OC)cc1Cl` was 6.57%; that for `COc1cccc(NC(=O)CN(C)C(=O)c2cccnc2Nc2cccc(C(F)(F)F)c2)c1` was 4.87%.
The value for `CN(C)C(/C=C/Nc1ccc(F)cc1)=C(C#N)C#N` was -8.47%.
As to `CC(C)(C)C1CCc2onc(C(=O)Nc3cnn(Cc4ccc(F)cc4)c3)c2C1` (centres unmarked), the “hERG current change (%, negative = inhibition) at 10uM” value amounted to 11.9%.
As for `COc1ccccc1-c1nc2ccccc2c(=O)n1NC(=O)c1cccs1`, the “hERG current change (%, negative = inhibition) at 10uM” value turned out to be 2%.
With `CCCC(=O)N1CC(=O)Nc2ccc(Br)cc2C1c1ccc(F)cc1` (centres unmarked), the “hERG current change (%, negative = inhibition) at 10uM” value was -21.5%.
To `O=C(Nc1cccc(-c2cnc3ccccc3n2)c1)c1ccco1` belongs -32.6%.
To `COCc1cc(C)nc(OCC(=O)N/N=C/c2ccc(-c3cc([N+](=O)[O-])ccc3C)o2)c1C#N` belongs -23.6%; to `CCCN1CCCc2ccccc21.Cl`, 7.61%; to `CCCN(CCC)CCCNC(=O)CC1Nc2ccccc2NC1=O` (centres unmarked), 10.5%.
To `O=C(O)CCc1nn2c3ccccc3n(CCN3CCCCC3)c2nc1=O` belongs 3.59%; to `CCOc1ccc2nc(NC(=O)COC)sc2c1`, -11%; to `c1ccc(Cn2cc(CN3CCCCO3)c(-c3ccc4c(c3)OCO4)n2)cc1`, -1.3%.
In the case of `Cc1csc(=O)n1CC(=O)OCC(=O)NNC(=O)c1ccc(Cl)cc1`, the “hERG current change (%, negative = inhibition) at 10uM” value was -7.47%.
For the molecule `COc1ccccc1Nc1nc(-c2cccs2)cs1`, the “hERG current change (%, negative = inhibition) at 10uM” value is reported as -10.7%.
To `O=C(N=NC(=O)c1ccc2c(O)n(CC3CCCO3)c(O)c2c1)c1cccnc1` (centres unmarked) belongs -6.05%.
The value for `O=C1CCN(Cc2ccccc2)CCN1CCO` was 20.5%; that for `COc1ccc(C(=O)N2CCCC(c3nc(-c4ccc(C)o4)no3)C2)cc1OC` (centres unmarked) was -8.29%.
Regarding `CCC(=O)Nc1ccc(-c2nnc(SCC(=O)N3CCCCC3)n2C)cc1`, the “hERG current change (%, negative = inhibition) at 10uM” value is given as -9.31%.
Take `Clc1cc(Cl)c(Cl)c(Cl)c1Cl`: the “hERG current change (%, negative = inhibition) at 10uM” value worked out at 8.83%.
